Screen size: about 48,000 compounds; about 450 (0.94%) were called active. Inconclusive results (about 19%) are left out. Calls come from the whole dose curve; as a rule, active = well fitted inhibition curve with a large enough effect; inconclusive = small, poorly fitted or top-dose-only effect; inactive = no such curve, though single readings can be large or run the other way. The list shows a part of the results.
Assay: Primary qHTS for Identification of Small Molecule Inhibitors of Huntingtin Promoter Activity; note: nearly all actives have a fitted effect of over 50% in size
Conditions: HEK293 HTT promoter firefly luciferase reporter (activity 0% = vehicle and -100% = no light), 24 h; series mostly up to 57.5 µM; activity change, negative = inhibition: at the top concentration
In short: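 Firefly luciferase signal from promoter-reporter HEK293 cells was scaled between vehicle (0%) and zero RLU (-100%). Compounds were tested at final concentrations of up to 57.5 uM over 24 h at 37 degrees C. PTC124 at 50 uM final served as control inhibitor.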
Potency is the fitted concentration of half-maximal effect.

SMILES | activity change, negative = inhibition | Potency
COc1cccc(NC(=O)C(=O)NCCc2csc(-c3ccc(C)cc3)n2)c1 | inactive: 41.3% | –
COc1ccc(C2=C(C)C(N3CCC(C(=O)Nc4cc(C)ccc4C)CC3)=NS2(=O)=O)cc1 | inactive: -18.5% | –
COC(=O)c1ccc(Cl)cc1NC(=O)NCc1c(-n2cccc2)sc2c1CCCC2 | inactive: -8.85% | –
CCOc1ccc(C(=O)Nc2ccc(C(=O)OCc3cc(=O)n4ccsc4n3)cc2)cc1 | inactive: 5.3% | –
CCOC(=O)c1ccc(NC(=O)c2csc3c2CCCC3)cc1 | inactive: 27.7% | –
O=C(Nc1cccc2cccnc12)c1cccc2ccccc12 | inactive: 41.5% | –
COc1cccc(N2CCN(C(=O)c3cc4c(=O)n(Cc5cccs5)ccc4nc3C)CC2)c1 | inactive: -27% | –
Cc1ccc(CNC(=O)Cn2ncc3c([nH]c4ccc(C)cc43)c2=O)cc1 | inactive: 5.52% | –
COc1ccccc1CCNC(=O)Cc1c(C)c2cc3c(C(C)(C)C)coc3c(C)c2oc1=O | inactive: -10% | –
COc1ccc(CCNC(=O)c2ccc(-n3c(C)cc4c3CCCC4)cc2)cc1OC | inactive: 13.1% | –
CCCc1cc(=O)[nH]c(SCc2nc(-c3ccc(C)cc3)no2)n1 | inactive: -3.54% | –
Cc1cccc(NC(=O)Cn2cnc(S(=O)(=O)N3CCCC3)c2)c1C | inactive: -32.8% | –
CC(C)Oc1ccc(CNC(=O)Nc2ccc3c(c2)N(C)C(=O)c2ccccc2S3)cc1 | – | active: 25.1 µM
CCCSc1ncc(Cl)c(C(=O)Nc2c(C(=O)Nc3ccccc3)oc3ccccc23)n1 | inactive: -4.46% | –
O=C(OCC1CCCO1)c1ccc2c(c1)N(Cc1cccc(Cl)c1)C(=O)c1ccccc1S2(=O)=O (stereo unspecified) | inactive: -1.01% | –
Cc1ccc(NC(=O)NCCOCCn2c(=O)oc3ccccc32)cc1F | inactive: -7.41% | –
O=C1O[C@H](CO)[C@@H](O)[C@H](O)[C@H]1O | inactive: -0.794% | –
Cn1c(=O)c2c(ncn2CC(=O)O)n(C)c1=O | inactive: 6.12% | –
Cc1cccc(NC(=O)c2c(NC(=O)c3ccccc3)sc3c2CCCC3)c1 | inactive: -1.05% | –
Cc1cc(C)c2c(n1)nn1c(C)c(CCC(=O)NCc3ccccc3Cl)c(C)nc21 | inactive: 17.3% | –
COC(=O)c1c(C)sc(-c2c(-c3ccc4c(c3)OCCO4)[nH]c3[nH]c(=O)[nH]c(=O)c23)c1O | inactive: 0.168% | –
CCOc1ccc(-c2cc3nc(C4CCN(C(=O)OC(C)(C)C)CC4)c(C(=O)Nc4ccc(C)cc4Cl)cn3n2)cc1 | inactive: -19.6% | –
O=S(=O)(c1ccc(Br)cc1)c1nnn2c1nc(Nc1cccc(C(F)(F)F)c1)c1sccc12 | inactive: -7.27% | –
CN1CCSc2ccc(C(=O)NCc3ccccc3F)cc21 | inactive: 37.4% | –
COc1cc(C(=O)Nc2nc3c(s2)Cc2c(Br)ccc(OC)c2-3)cc(OC)c1OC | inactive: -16.4% | –
O=C(Nc1nnc(N2CCCCCC2)s1)Nc1ccccc1C(F)(F)F | inactive: 8.23% | –

Source: PubChem BioAssay AID1508623 (National Center for Advancing Translational Sciences (NCATS), 2021)
